The list shows a part of the results. Single values are uncertain, as repeats are few or missing.
Assays:
Assay in all cases: cell count relative to DMSO control; melanoma cells; higher = more viable cells
Settings in all cases: library dose: standard library concentration; 72 h
G361 = system: G361
IPC-298 = system: IPC-298
IST-MEL1 = system: IST-MEL1
LB2518-MEL = system: LB2518-MEL
LOXIMVI = system: LOXIMVI
MEL-HO = system: MEL-HO
MZ2-MEL = system: MZ2-MEL
MeWo = system: MeWo
RPMI7951 = system: RPMI7951
RVH-421 = system: RVH-421
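Note: cells treated in 1,536-well plates, then fixed and DAPI-stained, with nuclei counted from automated high-throughput microscope images.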

| Structure (SMILES) | cell count (G361) [%] | cell count (IPC-298) [%] | cell count (IST-MEL1) [%] | cell count (LB2518-MEL) [%] | cell count (LOXIMVI) [%] | cell count (MEL-HO) [%] | cell count (MZ2-MEL) [%] | cell count (MeWo) [%] | cell count (RPMI7951) [%] | cell count (RVH-421) [%] |
| --- | --- | --- | --- | --- | --- | --- | --- | --- | --- | --- |
| OCCn1cc(-c2cnc3nnn(Cc4ccc5ncccc5c4)c3n2)cn1 + COc1cc(N2CCC(N3CCN(C)CC3)CC2)ccc1Nc1ncc(Cl)c(Nc2ccccc2S(=O)(=O)C(C)C)n1 [NVP-TAE684] (first compound 5 µM, partner dose 0.4 µM) | 78.6 | 84.9 | 102 | 89.5 | 87.2 | 81.6 | 26.4 | 70.3 | 66.6 | 94.9 |
| CO[C@@H]1[C@H](N(C)C(=O)c2ccccc2)C[C@H]2O[C@]1(C)n1c3ccccc3c3c4c(c5c6ccccc6n2c5c31)C(=O)NC4 [Midostaurin] + Cc1cc(N2CCOCC2)cc2[nH]c(-c3c(NC[C@@H](O)c4cccc(Cl)c4)cc[nH]c3=O)nc12 [BMS536924] (first compound 0.4 µM, partner dose 1 µM) | 56.4 | 70.1 | 70.2 | 46.1 | 72.3 | 77.9 | 85.6 | 56.2 | 55.2 | 68.8 |
| OCCn1cc(-c2cnc3nnn(Cc4ccc5ncccc5c4)c3n2)cn1 + O=C1NC(=O)/C(=C/c2ccc(-c3ccc(F)cc3O)o2)S1 [AS252424] (first compound 5 µM, partner dose 5 µM) | 93.6 | 82.7 | 99 | 91.2 | 89.2 | 87.6 | 84.4 | 92.3 | 77.3 | 136 |
| Cc1nc(Nc2ncc(C(=O)Nc3c(C)cccc3Cl)s2)cc(N2CCN(CCO)CC2)n1 [dasatanib] + COc1ccc(COc2ccc(Cc3cnc(N)nc3N)cc2OC)cc1 [GW2580] (first compound 0.02 µM, partner dose 5 µM) | 73.5 | 86.5 | 71 | 116 | 37.3 | 82.6 | 65.4 | 74 | 41.4 | 75.2 |
| C[C@]1(c2nc3c(C(N)=O)cccc3[nH]2)CCCN1 [Veliparib] + O=S(=O)(c1ccccc1)N(CC(F)(F)F)c1ccc(C(O)(C(F)(F)F)C(F)(F)F)cc1 [T0901317] (first compound 7 µM, partner dose 7 µM) | 69.5 | 82.3 | 97.4 | 93.8 | 101 | 84.2 | 77.8 | 70.7 | 81.1 | 62.3 |
| CN(C)S(=O)(=O)c1ccc2c(c1)/C(=C/c1cc3c([nH]1)CCCC3)C(=O)N2 + Cc1cc([N+](=O)[O-])ccc1NS(=O)(=O)c1cc(Cl)ccc1Cl [FH535] (first compound 2 µM, partner dose 5 µM) | 42.7 | 48.5 | 54.7 | 68.2 | 87.7 | 51.8 | 73.7 | 76.5 | 65.3 | 70.2 |
| C[C@]1(c2nc3c(C(N)=O)cccc3[nH]2)CCCN1 [Veliparib] + O=C(O)C(=O)Nc1sc2c(c1C(=O)O)CCNC2 [TCS401] (first compound 7 µM, partner dose 8.33333 µM) | 89.3 | 106 | 108 | 85.6 | 86.9 | 101 | 107 | 104 | 104 | 80.2 |
| C=CCn1c(=O)c2cnc(Nc3ccc(N4CCN(C)CC4)cc3)nc2n1-c1cccc(C(C)(C)O)n1 + Oc1cc(-c2nc(-c3ccccc3)[nH]c2-c2ccncc2)ccc1Cl [L779450] (first compound 0.1 µM, partner dose 1 µM) | 62.9 | 63.3 | 83.1 | 62.4 | 94.1 | 80.4 | 93 | 58.7 | 54.3 | 65.5 |
| NCC(=O)Nc1ccc(-n2nc(C(F)(F)F)cc2-c2ccc3c(ccc4ccccc43)c2)cc1 + Cn1cc(/C=C2\C(=O)Nc3cccnc32)c2ccccc21 [GW441756] (first compound 5 µM, partner dose 2 µM) | 73.6 | 47.9 | 74.3 | 67.6 | 77.8 | 68.1 | 74.6 | 104 | 79.2 | 78 |
| CO[C@@H]1[C@H](N(C)C(=O)c2ccccc2)C[C@H]2O[C@]1(C)n1c3ccccc3c3c4c(c5c6ccccc6n2c5c31)C(=O)NC4 [Midostaurin] + CC(C)(C)c1cnc(CSc2cnc(NC(=O)C3CCNCC3)s2)o1 [SNS-032] (first compound 0.4 µM, partner dose 0.05 µM) | 32.6 | 60 | 73.3 | 63.8 | 47.1 | 66.3 | 64.2 | 68.5 | 14.8 | 76.5 |
| C=CCn1c(=O)c2cnc(Nc3ccc(N4CCN(C)CC4)cc3)nc2n1-c1cccc(C(C)(C)O)n1 + NC(=O)Nc1cc(-c2cccc(F)c2)sc1C(=O)N[C@H]1CCCNC1 [AZD7762] (first compound 0.1 µM, partner dose 0.1 µM) | 59.5 | 38.9 | 51.4 | 28 | 54.1 | 43.9 | 126 | 15.7 | 13.1 | 100 |
| CO[C@@H]1[C@H](N(C)C(=O)c2ccccc2)C[C@H]2O[C@]1(C)n1c3ccccc3c3c4c(c5c6ccccc6n2c5c31)C(=O)NC4 [Midostaurin] + N#Cc1c(O)c2c(-c3ccc(-c4ccccc4O)cc3)csc2[nH]c1=O [A769662] (first compound 0.4 µM, partner dose 10 µM) | 66.4 | 73.2 | 83.1 | 72.2 | 84.6 | 78.4 | 63 | 57.3 | 46.9 | 70.3 |
| C[C@]1(c2nc3c(C(N)=O)cccc3[nH]2)CCCN1 [Veliparib] + NC(=O)Nc1cc(-c2cccc(F)c2)sc1C(=O)N[C@H]1CCCNC1 [AZD7762] (first compound 7 µM, partner dose 0.1 µM) | 88.2 | 92.3 | 90 | 65.9 | 62 | 88.9 | 117 | 71.5 | 38.4 | 129 |
| Cc1nc(Nc2ncc(C(=O)Nc3c(C)cccc3Cl)s2)cc(N2CCN(CCO)CC2)n1 [dasatanib] + OCCn1cc(-c2cnc3nnn(Cc4ccc5ncccc5c4)c3n2)cn1 [PF04217903] (first compound 0.02 µM, partner dose 5 µM) | 88.7 | 120 | 67.4 | 95.1 | 20.5 | 87.4 | 68 | 89.7 | 46.7 | 63 |
| CO[C@@H]1[C@H](N(C)C(=O)c2ccccc2)C[C@H]2O[C@]1(C)n1c3ccccc3c3c4c(c5c6ccccc6n2c5c31)C(=O)NC4 [Midostaurin] + O=C(O)C(=O)Nc1sc2c(c1C(=O)O)CCNC2 [TCS401] (first compound 0.4 µM, partner dose 8.33333 µM) | 79.1 | 85.7 | 89.5 | 106 | 82.3 | 80.1 | 81.8 | 76.3 | 54.7 | 67.4 |
| Cc1nc(Nc2ncc(C(=O)Nc3c(C)cccc3Cl)s2)cc(N2CCN(CCO)CC2)n1 [dasatanib] + COc1ccc2c(c1)CCC1C2CCC2(C)C(NCCCCCCN3C(=O)C=CC3=O)CCC12 [U73122] (first compound 0.02 µM, partner dose 2 µM) | 67.6 | 87.2 | 60.8 | 76.5 | 26.9 | 80.7 | 72.2 | 52.2 | 16.9 | 59.1 |
| CO[C@@H]1[C@H](N(C)C(=O)c2ccccc2)C[C@H]2O[C@]1(C)n1c3ccccc3c3c4c(c5c6ccccc6n2c5c31)C(=O)NC4 [Midostaurin] + COc1ccc(-c2ccc3c(N4CCOCC4)nc(N4C[C@@H](C)O[C@@H](C)C4)nc3n2)cc1CO [KU0063794] (first compound 0.4 µM, partner dose 0.1 µM) | 36.8 | 38.5 | 79.9 | 41.9 | 37.4 | 58.4 | 37.8 | 60.3 | 31.8 | 52 |
| NCC(=O)Nc1ccc(-n2nc(C(F)(F)F)cc2-c2ccc3c(ccc4ccccc43)c2)cc1 + COc1cc2c(Oc3ccc4[nH]c(C)cc4c3F)ncnc2cc1OCCCN1CCCC1 [cediranib] (first compound 5 µM, partner dose 2 µM) | 53.7 | 59.8 | 91.5 | 59.1 | 72.9 | 76.3 | 93.2 | 82.7 | 34.5 | 75.6 |
| NC(=O)Nc1cc(-c2cccc(F)c2)sc1C(=O)N[C@H]1CCCNC1 + OCCn1cc(-c2cnc3nnn(Cc4ccc5ncccc5c4)c3n2)cn1 [PF04217903] (first compound 0.1 µM, partner dose 5 µM) | 91.9 | 85.4 | 89.9 | 72.3 | 74.2 | 79.6 | 116 | 89.3 | 33.7 | 124 |
| NC(=O)Nc1cc(-c2cccc(F)c2)sc1C(=O)N[C@H]1CCCNC1 + O=C(O)c1ccc(-c2c[nH]c3ncc(-c4ccccc4)cc23)cc1C1CCCC1 [GSK650394] (first compound 0.1 µM, partner dose 0.8 µM) | 61.2 | 81.5 | 20.3 | 85.3 | 60.7 | 77.3 | 94.8 | 76.4 | 52.4 | 17.8 |
| CN(C)S(=O)(=O)c1ccc2c(c1)/C(=C/c1cc3c([nH]1)CCCC3)C(=O)N2 + O=C(O)C(=O)Nc1sc2c(c1C(=O)O)CCNC2 [TCS401] (first compound 2 µM, partner dose 8.33333 µM) | 69.2 | 75.1 | 80.1 | 80.3 | 61.6 | 77 | 80.1 | 82.2 | 59 | 89.1 |
| NC(=O)Nc1cc(-c2cccc(F)c2)sc1C(=O)N[C@H]1CCCNC1 + O=C1NC(=O)/C(=C/c2ccc(-c3ccc(F)cc3O)o2)S1 [AS252424] (first compound 0.1 µM, partner dose 5 µM) | 90.8 | 92.8 | 112 | 135 | 104 | 82.7 | 108 | 93.6 | 60.6 | 102 |
| C=CCn1c(=O)c2cnc(Nc3ccc(N4CCN(C)CC4)cc3)nc2n1-c1cccc(C(C)(C)O)n1 + COc1cc2ncnc(Nc3ccc(Oc4ccccc4)cc3)c2cc1OC [SrcI1] (first compound 0.1 µM, partner dose 10 µM) | 47 | 54.1 | 83.1 | 63 | 53.3 | 64.7 | 71.2 | 60.1 | 47.7 | 75.8 |

Reference: the supplement of paper PMC4604168 (melanoma cell lines)
